Data from paper PMC10735225.
These are yes or no findings as the source states them, for the method shown. In cells and extracts the contact can be indirect. Some entries that bind do so weakly or less than the wild type.

Target: T1, endogenous SPATA6 (mouse testis) (mouse (endogenous in mouse testis)) (UniProt Q3U6K5)
T1 sequence: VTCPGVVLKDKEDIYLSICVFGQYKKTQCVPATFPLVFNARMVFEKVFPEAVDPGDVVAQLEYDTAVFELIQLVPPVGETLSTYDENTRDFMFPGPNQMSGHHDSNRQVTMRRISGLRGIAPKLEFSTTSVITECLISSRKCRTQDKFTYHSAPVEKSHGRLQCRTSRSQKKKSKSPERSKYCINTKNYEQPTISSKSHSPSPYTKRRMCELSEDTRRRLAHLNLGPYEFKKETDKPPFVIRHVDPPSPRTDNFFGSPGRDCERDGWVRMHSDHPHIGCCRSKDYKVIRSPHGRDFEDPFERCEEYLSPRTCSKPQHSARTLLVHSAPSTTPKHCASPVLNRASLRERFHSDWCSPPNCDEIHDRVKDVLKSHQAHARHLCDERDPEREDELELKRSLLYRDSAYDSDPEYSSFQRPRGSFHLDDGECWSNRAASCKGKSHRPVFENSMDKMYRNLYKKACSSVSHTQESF
Assay: co-IP; endogenous proteins in mouse testis lysates; 2 ug anti-SPATA6 antibody, rabbit IgG as negative control; Protein A/G agarose; western blot

binding: binds
B1: endogenous CFAP52 (mouse testis) (protein, UniProt Q5F201-1 1-620)
chain: MEEQVLPELDVAELELQAVIGFNGHVPNGLKCHPDQEHLIYPLGCTVLIQAINTNEQNFLHGHGNNVSCVTISKEGDYIASGQVTFMGFKADIILWDFKKRELIARLSLHKGKIEALAFSPNDLYLVSLGGPDDGSVVVWSIAKRDAICGSPAAGLNVGNATSVVFSRCRDEMFVTAGNGTIRVWELDLPNRKIWPTECQTGQMKRIVLSTGMADDDSFFYLGTTTGDILKMNPKTKLLADTGPVKDKFSLGVSALRCLKMGGLLVGSGAGLLIFCKSPSYKPIKKVQLQGGITSITLRGEGHQFFVGTEESHIYRVNFTDFKETLIATCHFEAVQDIVFPFGTAELFATCAKKDIRVWHTMSKRELLRITVPNMTCHGIDFMRDGKSIISAWDDGKIRAFAPESGRLMYTINSAHRIGVTAIATTSDCKRIISGGGEGEVRVWQVGCQTQKLEEALKEHKSSVSCIRVKKNNEECVTASTDGTCIIWDLVRLRRNQMILANTLFQCVCYHPEEFQIITSGTDRKIAYWEVFDGSVIRELEGSLSGSINGMDITQEGGHFVTGGHDHLVKVWDYNEGEVTHVGVGHSGNIMAMRISPGNQYIVSVSADGAILRWKYPFAS
